Experimental data as given in a compilation of properties of binary mixtures (doi:10.1016/j.molliq.2022.119209).
Some of these densities may be calculated back from excess volumes.

Test: xn = mol fraction of the nth substance listed
Conditions: 100 kPa

O + CC(N)C(=O)[O-].CCCC[n+]1ccn(C)c1C
x2 = 0
Conditions	mass density [kg/m3]
288.15 K	998
303.15 K	994.5
308.15 K	992.9

CC(N)C(=O)[O-].CCCC[n+]1ccn(C)c1C + O
mass density [kg/m3]
Conditions	x1 = 0.1003	x1 = 0.2012	x1 = 0.3009	x1 = 0.4014	x1 = 0.4938	x1 = 0.5975	x1 = 0.6987	x1 = 0.7945	x1 = 0.8965
288.15 K	1066.3	1078	1083.5	1086	1087.3	1088.3	1089.3	1090	1091.8
293.15 K	–	1074.6	1080	1082.6	1083.8	1084.9	–	1086.6	1088.4
298.15 K	1059.7	1071.1	1076.5	1079.1	1080.4	1081.4	1082.4	1083.1	1084.9
303.15 K	1056.3	1067.6	1073	1075.6	1076.9	1078	1079	1079.7	1081.5
308.15 K	1053	1064.1	1069.5	1072.1	1073.4	1074.5	1075.5	1076.2	1078
313.15 K	1049.5	1060.5	1065.9	1068.6	1069.9	1071	–	1072.7	1074.6
318.15 K	1046.1	1056.9	–	1065	1066.3	1067.5	1068.5	1069.3	1071.1
